# Paper PMC4336329 (PLoS ONE, 2015)
# Screen size: about 310,000 compounds; about 14,000 (4.5%) showed an effect of 50% or more. The effect is printed as a negative number. This is one part of the list.
# Molecular target: human ether-à-go-go-related gene (hERG) potassium channel (human, UniProt Q12809)
# Experiment: primary screen, population patch clamp on CHO cells stably expressing hERG
# 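Further: peak tail current of the secondary pulse compared with the same well before compound.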
# human ether-à-go-go-related gene (hERG) potassium channel, sequence (Q12809 whole entry, looked up): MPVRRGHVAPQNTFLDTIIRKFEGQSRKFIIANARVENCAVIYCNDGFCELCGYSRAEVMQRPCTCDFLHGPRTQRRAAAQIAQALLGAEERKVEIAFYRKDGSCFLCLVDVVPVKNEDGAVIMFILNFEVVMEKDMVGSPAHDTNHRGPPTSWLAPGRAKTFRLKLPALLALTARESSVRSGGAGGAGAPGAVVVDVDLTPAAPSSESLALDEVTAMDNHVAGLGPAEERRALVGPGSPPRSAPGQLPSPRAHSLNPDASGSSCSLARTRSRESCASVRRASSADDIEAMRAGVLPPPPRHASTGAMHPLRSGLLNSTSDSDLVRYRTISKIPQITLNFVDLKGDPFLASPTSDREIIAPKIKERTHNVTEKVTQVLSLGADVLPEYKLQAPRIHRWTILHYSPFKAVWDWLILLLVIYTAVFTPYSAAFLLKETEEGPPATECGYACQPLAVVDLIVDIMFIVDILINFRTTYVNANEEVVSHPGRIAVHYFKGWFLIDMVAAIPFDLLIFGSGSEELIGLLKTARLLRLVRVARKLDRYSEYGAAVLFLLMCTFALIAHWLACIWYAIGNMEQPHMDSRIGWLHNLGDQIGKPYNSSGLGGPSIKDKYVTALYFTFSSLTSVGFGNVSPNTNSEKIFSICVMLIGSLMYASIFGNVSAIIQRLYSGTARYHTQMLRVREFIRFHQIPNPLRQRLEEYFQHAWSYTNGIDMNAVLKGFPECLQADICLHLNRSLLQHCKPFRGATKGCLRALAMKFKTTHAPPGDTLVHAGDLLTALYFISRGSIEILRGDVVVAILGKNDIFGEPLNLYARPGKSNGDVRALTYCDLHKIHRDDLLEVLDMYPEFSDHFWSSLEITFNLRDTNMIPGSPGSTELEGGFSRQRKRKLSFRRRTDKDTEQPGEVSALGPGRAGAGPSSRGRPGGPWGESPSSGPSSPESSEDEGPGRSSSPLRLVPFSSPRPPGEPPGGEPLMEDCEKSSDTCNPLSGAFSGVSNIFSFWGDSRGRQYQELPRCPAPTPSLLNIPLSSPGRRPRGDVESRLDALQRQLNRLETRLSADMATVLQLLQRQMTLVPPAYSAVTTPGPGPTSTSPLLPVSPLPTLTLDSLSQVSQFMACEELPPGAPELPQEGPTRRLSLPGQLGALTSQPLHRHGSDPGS
row,SMILES,"hERG current change (%, negative = inhibition) at 10uM [%]"
1,CC(=O)c1sc(NC(=O)c2cc(=O)c3ccccc3o2)nc1C,10.1
2,CN1CC(c2ccc(C#N)cc2)C2(COc3ccccc3C2=O)C12C(=O)Nc1ccccc12 (stereo not shown),-37.1
3,Cc1cccc(C)c1NS(=O)(=O)c1ccc(-c2cnc(C3CC3)o2)cc1,10.7
4,COc1cc(/C=C2\C(=N)N3N=C(S(C)(=O)=O)SC3=NC2=O)cc(OC)c1OCCOc1ccccc1C,23.4
5,CCN(CC)S(=O)(=O)c1ccc(C)c(NC(=S)N2CCN(C/C=C/c3ccccc3)CC2)c1,-2.74
6,NCC(=O)Nc1ccc(Br)cc1,10.2
7,Cc1nn(-c2ccccc2)c(N2CCCCC2)c1/C=N/NC(=O)c1ccncc1,7.3
8,CC(=O)c1cc2c(cc1NC(=O)C1CC=CCC1C(=O)O)OCO2 (stereo not shown),8.02
9,CC1=CC(C)C2C(=O)N(c3ccccc3)C(=O)C2C1 (stereo not shown),5.25
10,COc1ccc2oc(=O)c(C(=O)O)cc2c1,4.91
11,O=C(CCCCCn1c(=S)[nH]c2cc3c(cc2c1=O)OCO3)NCCc1ccccc1,15.1
12,NC(=O)c1sc2nccc(Nc3ccccc3)c2c1N,-19
13,CCCC1CC(C)(C(=O)Cn2[nH]c(=O)ccc2=O)OC1=O (stereo not shown),-3.28
14,O=C(CCCOc1ccccc1)NCCc1ccccc1,-3.36
15,COc1ccc(C(=O)/C(C#N)=N/Nc2ccccc2[N+](=O)[O-])cc1,10.5
16,COc1ccc(Br)c(/C=N/NC(=O)COc2ccc(-c3ccccc3)cc2)c1,7.38
17,C=CCn1c(SCC(=O)/C(C#N)=C(\C)N)nnc1C1CCCCC1,-3.62
18,O=c1c2ccsc2ncn1Cc1ccc(Cl)cc1,-3.3
19,O=C(CSc1nnc(COc2ccccc2)o1)N1CCN(c2ccccc2)CC1,3.61
20,N#Cc1ccccc1CN1C(=O)c2ccccc2S1(=O)=O,16
21,Cc1ccc(CS(=O)(=O)CCC(=O)N2CCOCC2)cc1,12.6
22,CCC(=O)NC(c1ccco1)c1cc(Cl)c2ccccc2c1O (stereo not shown),0.92
23,Cc1cccc(C)c1NC(=O)CSCC(=O)c1ccc(O)c(O)c1,16

row,SMILES,"hERG current change (%, negative = inhibition) at 10uM [%]"
1,O=C(Nc1ccc(S(=O)(=O)N2CCOCC2)cc1)c1ccccc1F,6.32
2,CSc1ccccc1C(=O)NC1CC2CCC1C2 (stereo not shown),-4.16
3,C=CCOc1ccc(C2=NOC(C(=O)Nc3ccc4c(c3)OCCO4)C2)cc1OC (stereo not shown),20.3
4,CC1=NN(C(N)=S)C(=O)C1N=Nc1cccc(C)c1 (stereo not shown),6.22
5,COCCCn1c(SCC(=O)n2c(C)c(C)c3ccccc32)nnc1-c1ccoc1C,-24.6
6,O=S(=O)(NCc1cccs1)c1ccc(Br)s1,2.07
7,Cc1noc(C)c1S(=O)(=O)N(CC(=O)NCc1ccc(Cl)cc1)c1ccc2c(c1)OCO2,-19
8,CN(C)S(=O)(=O)c1cccc(NC(=O)Cn2cnc3ccccc3c2=O)c1,8.28
9,COc1ccc(S(=O)(=O)Cc2ccc(C(=O)N3CCN(Cc4ccccc4)CC3)o2)cc1,-33.1
10,Cn1cc(/C=C2\SC(=O)N(c3ccc(O)cc3)C2=O)c2ccccc21,1.68
11,COC(=O)c1cc(OC)c(OC)cc1NC(=S)N1CCN(c2ccccn2)CC1,-6.01
12,O=C(CN1CC(c2ccccc2)CC1=O)Nc1cccc(F)c1 (stereo not shown),1.4
13,Cn1cc(C(=O)N/N=C/c2ccc([N+](=O)[O-])cc2)c2ccccc21,1.98
14,COc1ccccc1CNC(=O)COC(=O)CCN=C1NS(=O)(=O)c2ccccc21,-4.7
15,O=C(N/N=C/c1cccnc1)c1cc(-c2ccc(Cl)cc2)nc2ccccc12,-1.5
16,Cc1[nH]nc(-c2ccc(O)c(C)c2O)c1Oc1ccccc1,-10
17,CCN(CC)C(=O)COc1cccc2ccccc12,15.1
18,O=C(OCn1nnc2ccccc2c1=O)C1CCCCC1,5.57
19,CC(C)CCNC(=O)C1CCCN1C(=O)NC1CCCCC1 (stereo not shown),4.74
20,COC(=O)c1ccc(NC(=S)N2CCN(Cc3ccccc3)CC2)cc1,-4.66
21,CCc1nn2c(N)c(/C=C3\C=Nc4ccccc43)c(=O)nc2s1,10.3
22,COc1cccc(C(=O)NCc2cccnc2)c1,1.54
23,CCC1=NN2C(=N)/C(=C/c3cc(C)n(Cc4ccccc4)c3C)C(=O)N=C2S1,8.33

row,SMILES,"hERG current change (%, negative = inhibition) at 10uM [%]"
1,O=C(CN(c1ccc(Cl)cc1)S(=O)(=O)c1ccccc1)N1CCN(c2ccccc2)CC1,-17.4
2,Cc1cc(C)c(S(=O)(=O)N2CCN(S(=O)(=O)N3CCOCC3)CC2)c(C)c1,-2.92
3,CCN(C(=S)NC(=O)C1CC1)c1ccccc1,11.3
4,CC(C)CCN1C(=O)c2ccc(C(=O)Nc3ccc(Br)cc3C(=O)O)cc2C1=O,26.4
5,Fc1ccc2[nH]c3c(N4CCN(c5ccccc5)CC4)ncnc3c2c1,5.28
6,CCCNCc1nnc(-c2ccccc2Cl)o1,10.3
7,O=C(CCCSc1nc2ccccc2[nH]1)NC1CCCCC1,8.95
8,COCc1nc(-c2ccc(-c3ccc(OC)cc3)nc2OC)no1,10.6
9,C=CCC(=O)N(CC)CC1CCCN(CCc2cccc(F)c2)C1 (stereo not shown),-54.2
10,Cc1ccc(-n2c(=S)[nH]c3sc4c(c3c2=O)CCc2ccccc2-4)cc1,26.2
11,COC(=O)C1=C(C)N=C2SCCC(=O)N2C1c1ccc(C(=O)OC)cc1 (stereo not shown),-32.2
12,CCOC(=O)c1ccccc1Nc1cn(C(C)=O)c2ccccc12,17.2
13,Cc1cc(C(=O)NCC2CCCO2)n(-c2ccccc2)n1 (stereo not shown),-3.55
14,COc1ccc(N(CC(=O)NCc2ccccc2Cl)S(=O)(=O)c2c(C)noc2C)cc1,-15.2
15,O=C1CC(c2ccccc2)n2ncnc2N1 (stereo not shown),-3.5
16,Cc1ccc(N2C(=O)N(CC(=O)NC(c3ccccc3)c3ccccc3)C(=O)C2C)cc1 (stereo not shown),-32.6
17,CCN(CC)CCCNC(=O)C1c2cc(OC)c(OC)cc2C(=O)N(C)C1c1cccnc1 (stereo not shown),23.4
18,COC(=O)c1ccc2c(c1)C(=O)N(C1CCCCC1)C2=O,9.33
19,Cc1ccc(-n2c(C)c3c(C)nnc(C)c3c2C)cc1N,-15.1
20,O=C(CNc1ccc2ccccc2c1)N/N=C/C=C/c1cccc([N+](=O)[O-])c1,-0.672
21,O=C(N/N=C/c1cccc([N+](=O)[O-])c1)c1cnccn1,-2.47
22,COc1cc2c(cc1N/C=C(\C#N)c1nc(-c3ccccc3)cs1)oc1ccccc12,3.17
23,Cc1nnc(N(C)C(=O)c2cnccn2)s1,5.37

row,SMILES,"hERG current change (%, negative = inhibition) at 10uM [%]"
1,CC1CCCCN1C(=O)CSc1nnc(-c2cccs2)o1 (stereo not shown),-0.927
2,Cc1ccc(CNS(=O)(=O)c2ccc3c(c2)NC(=O)CO3)cc1,10.7
3,O=C(O)CCC(=O)N1N=C(c2cccs2)CC1c1ccc(Br)cc1 (stereo not shown),-5.45
4,N#CC(CCN1CCOCC1)(c1ccccc1)c1ccccc1,-20.8
5,CCOc1ccc(N(CC(=O)NCc2cccnc2)S(=O)(=O)c2ccc(F)cc2)cc1,-13.6
6,Cc1cc(-c2ccc(Cl)s2)n[nH]1,8.34
7,C/C(=N\OCC(=O)Nc1ccccc1Br)c1cccs1,10.5
8,O=C(CN1C(=O)NC2(CCCCC2)C1=O)Nc1cccc(S(=O)(=O)N2CCCC2)c1,-16.4
9,Cc1nc(SCC(=O)Nc2ccc(CN3CCCC3)cc2)c2c(C)c(C)sc2n1,-35.3
10,Cc1nc(N/N=C/c2ccccn2)sc1C,13.6
11,COCCCN=C(c1ccco1)n1c(=S)nc(-c2ccco2)n(CCCOC)c1=S,-38.5
12,COc1ccc(Cc2nnc(SCC(=O)N3CCCC3)o2)cc1,2.54
13,CC12CCC(C(=O)N3CCCc4ccccc43)(OC1=O)C2(C)C (stereo not shown),29.8
14,CCN(CC)S(=O)(=O)c1cc([N+](=O)[O-])ccc1NNC(=O)Nc1ccccc1OC,1.97
15,Cc1ccc(S(=O)(=O)N2CCCC2C(=O)Nc2cc(C)on2)cc1 (stereo not shown),-1.05
16,COc1cccc(C(=O)COc2ccccc2N2C(=O)C3C4C=CC(C4)C3C2=O)c1 (stereo not shown),-10.2
17,Cc1nc2c(Cl)cc(Cl)cc2[nH]1,-0.654
18,Cc1ccc(C(=O)Nc2nc3ccc(S(C)(=O)=O)cc3s2)s1,9.26
19,COC(=O)N1CC=CC1(C)C(=O)NCc1cc(F)cc(C(F)(F)F)c1 (stereo not shown),10.8
20,Cc1ccccc1CNc1nnnn1C,12.4
21,O=C1CN=C(c2ccccc2)c2c(sc3c2CCCC3)N1,8.1
22,O=C(/C=C/c1cccc(Cl)c1)NCc1cccs1,-26.6
